The list shows a part of the results. The main result of the screen is listed elsewhere. These columns were measured beside it and carry no call. Most of these compounds were active or inconclusive in the main read-out, so they are no random draw.
Test: inhibitors of triacylglycerol accumulation, primary screen, cell-based, uHTS, fluorescence, H9c2 (AID 651582)
Conditions: H9c2 cells, Nile Red lipid (TAG) fluorescence; measured here:; at 12.5 µM; cells loaded with 200 µM oleic acid

For CCCCCc1cc(=O)oc2c(C(CCN(CC)CC)c3ccc(N(C)C)cc3)c(OC)cc(OC)c12 (stereo unspecified), which DAPI nuclei signal change (viability), lower = more cytotoxic is on record?
Its DAPI nuclei signal change (viability), lower = more cytotoxic is -26.1%.

Which DAPI nuclei signal change (viability), lower = more cytotoxic does the source give for COc1cc(C(CCN2CCCC(C)C2)c2c(OC)cc(OC)c3c(-c4ccccc4)cc(=O)oc23)cc(OC)c1OC (stereo unspecified) here?
Its DAPI nuclei signal change (viability), lower = more cytotoxic is 5.17%.

With CCC1=Nc2cc(C(=O)NCCCOC)ccc2Sc2ccccc21 as the compound, how does the DAPI nuclei signal change (viability), lower = more cytotoxic read?
Its DAPI nuclei signal change (viability), lower = more cytotoxic is -8.1%.

Which DAPI nuclei signal change (viability), lower = more cytotoxic does the source give for CNC[C@@H](CC1CCCCC1)NC[C@H](CC(C)C)NCCc1cccc(C(F)(F)F)c1 here?
The DAPI nuclei signal change (viability), lower = more cytotoxic was -45.3%.

With COc1ccc(C(=O)Nc2ccc(Cl)cc2C(=O)NCc2ccco2)cc1OC as the compound, how does the DAPI nuclei signal change (viability), lower = more cytotoxic read?
Its DAPI nuclei signal change (viability), lower = more cytotoxic is -10.4%.

For CCOc1ccc2nc(-c3ccccc3)[nH]c2c1, which DAPI nuclei signal change (viability), lower = more cytotoxic is on record?
The DAPI nuclei signal change (viability), lower = more cytotoxic was -28.4%.

With Cc1ccnc(N2CCC(C(=O)Nc3ccc(Oc4ccccc4)cc3)CC2)n1 as the compound, how does the DAPI nuclei signal change (viability), lower = more cytotoxic read?
The DAPI nuclei signal change (viability), lower = more cytotoxic was -9.08%.

Which DAPI nuclei signal change (viability), lower = more cytotoxic does the source give for CCCCS(=O)(=O)/C=C\C=C/S(=O)(=O)CCCC here?
The DAPI nuclei signal change (viability), lower = more cytotoxic was -44.7%.

Which DAPI nuclei signal change (viability), lower = more cytotoxic does the source give for C[C@H](O)C#Cc1ccc2c(c1)O[C@@H](CN(C)Cc1ccc(-c3ccccc3)cc1)[C@H](C)CN([C@@H](C)CO)S2(=O)=O here?
The DAPI nuclei signal change (viability), lower = more cytotoxic was -8.66%.

Which DAPI nuclei signal change (viability), lower = more cytotoxic does the source give for COC(=O)[C@@]1(Cc2ccc(OC)cc2)[C@@H]2C(=CC(=O)[C@H]2CC(=O)C(=O)N2CCCC2)CN1C(=O)c1ccccc1 here?
Its DAPI nuclei signal change (viability), lower = more cytotoxic is -38.9%.

Which DAPI nuclei signal change (viability), lower = more cytotoxic does the source give for O=C(Nc1ccc(-c2nc3ncccc3o2)cc1)c1ccc(Br)o1 here?
The DAPI nuclei signal change (viability), lower = more cytotoxic was -4.74%.

With CN(C)CCCN(C(=O)CCc1ccccc1)c1nc2ccc(Br)cc2s1 as the compound, how does the DAPI nuclei signal change (viability), lower = more cytotoxic read?
The DAPI nuclei signal change (viability), lower = more cytotoxic was -28.2%.

For O=[N+]([O-])c1cc(S(=O)(=O)Nc2cccc(Cl)c2)ccc1N/N=C/c1ccc(N2CCOCC2)cc1, which DAPI nuclei signal change (viability), lower = more cytotoxic is on record?
Its DAPI nuclei signal change (viability), lower = more cytotoxic is 7.56%.

Which DAPI nuclei signal change (viability), lower = more cytotoxic does the source give for COc1ccccc1NC(=O)Nc1nc(C(N)C2CCCCC2)cs1 (stereo unspecified) here?
Its DAPI nuclei signal change (viability), lower = more cytotoxic is -12%.

Which DAPI nuclei signal change (viability), lower = more cytotoxic does the source give for Cc1ccccc1OCc1n(CC(=O)OC2CC(C)CCC2C(C)C)c2ccccc2[n+]1C (stereo unspecified) here?
Its DAPI nuclei signal change (viability), lower = more cytotoxic is -45.3%.

Which DAPI nuclei signal change (viability), lower = more cytotoxic does the source give for CC(C)c1ccc(NC(=O)Nc2nc(C(N)COCc3ccccc3)cs2)cc1 (stereo unspecified) here?
Its DAPI nuclei signal change (viability), lower = more cytotoxic is -45.1%.

Which DAPI nuclei signal change (viability), lower = more cytotoxic does the source give for COc1cc(/C=N/Nc2nc(C)nc3c2cnn3-c2ccccc2)ccc1O here?
Its DAPI nuclei signal change (viability), lower = more cytotoxic is 19.6%.

With COc1cc(-c2cc(NC=O)c3ncc(-c4cccc(C(=O)N(C)C)c4)n3c2)cc(OC)c1OC as the compound, how does the DAPI nuclei signal change (viability), lower = more cytotoxic read?
The DAPI nuclei signal change (viability), lower = more cytotoxic was -26.1%.

Which DAPI nuclei signal change (viability), lower = more cytotoxic does the source give for C[C@@H]1CN([C@@H](C)CO)C(=O)c2cccc(NC(=O)C3CCCCC3)c2O[C@@H]1CN(C)Cc1ccc(Cl)c(Cl)c1 here?
Its DAPI nuclei signal change (viability), lower = more cytotoxic is -9.88%.

For Cc1cc(NC(=O)CSc2nc(-c3ccco3)cc(C(F)(F)F)n2)no1, which DAPI nuclei signal change (viability), lower = more cytotoxic is on record?
The DAPI nuclei signal change (viability), lower = more cytotoxic was -25%.

With CCOc1cc(/C=N\NC(=O)c2ccc(NC(=O)C(C)(C)C)cc2)ccc1OC(=O)c1cccc(C)c1 as the compound, how does the DAPI nuclei signal change (viability), lower = more cytotoxic read?
Its DAPI nuclei signal change (viability), lower = more cytotoxic is -15.6%.

Which DAPI nuclei signal change (viability), lower = more cytotoxic does the source give for COc1ccc(S(=O)(=O)N(C)C[C@H]2Oc3c(NC(=O)Nc4ccc(C(F)(F)F)cc4)cccc3C(=O)N([C@H](C)CO)C[C@@H]2C)cc1 here?
Its DAPI nuclei signal change (viability), lower = more cytotoxic is -11.6%.

Which DAPI nuclei signal change (viability), lower = more cytotoxic does the source give for CC(C)c1ccc(Nc2ncc3c(n2)CCN(C(=O)Nc2ccc(F)c(Cl)c2)C3)cc1 here?
The DAPI nuclei signal change (viability), lower = more cytotoxic was -4.43%.

For O=C(/C=C/c1ccccc1)Oc1cccc2cccnc12, which DAPI nuclei signal change (viability), lower = more cytotoxic is on record?
The DAPI nuclei signal change (viability), lower = more cytotoxic was -20.2%.

With Cc1cc(N/N=C/c2cccc([N+](=O)[O-])c2)nc(-n2nc(C)cc2C)n1 as the compound, how does the DAPI nuclei signal change (viability), lower = more cytotoxic read?
The DAPI nuclei signal change (viability), lower = more cytotoxic was -30.3%.

For C#CCOCCOCCOCCNc1nc(N2CCN(C(=O)CCCCCCCCCCNC(=O)[C@H](CCCCN)n3cc(C[C@@H](C)CC)nn3)CC2)nc(N2CCN(C(=O)CCCCCCCCCCNC(=O)[C@H](CCCCN)n3cc(C[C@@H](C)CC)nn3)CC2)n1, which DAPI nuclei signal change (viability), lower = more cytotoxic is on record?
The DAPI nuclei signal change (viability), lower = more cytotoxic was -37.5%.

Which DAPI nuclei signal change (viability), lower = more cytotoxic does the source give for CC(=O)Nc1ccc(Sc2ccc([N+](=O)[O-])o2)cc1 here?
The DAPI nuclei signal change (viability), lower = more cytotoxic was -45.4%.

Which DAPI nuclei signal change (viability), lower = more cytotoxic does the source give for COCCCn1c(C(=O)Nc2ccc3c(c2)OCO3)cc2c(=O)n3cccc(C)c3nc21 here?
Its DAPI nuclei signal change (viability), lower = more cytotoxic is -11.5%.

Which DAPI nuclei signal change (viability), lower = more cytotoxic does the source give for COc1cc(C2c3cc4c(cc3OC(C)(N3CCCC3)C2C)OCO4)cc(OC)c1OC (stereo unspecified) here?
Its DAPI nuclei signal change (viability), lower = more cytotoxic is -44.4%.

With C[C@H]1CN([C@@H](C)CO)C(=O)c2cccc(NC(=O)Nc3ccc(C(F)(F)F)cc3)c2O[C@@H]1CN(C)Cc1ccc(Cl)c(Cl)c1 as the compound, how does the DAPI nuclei signal change (viability), lower = more cytotoxic read?
The DAPI nuclei signal change (viability), lower = more cytotoxic was -3.18%.

For CN(C)CCCN1c2ccccc2Sc2ccc(Cl)cc21, which DAPI nuclei signal change (viability), lower = more cytotoxic is on record?
Its DAPI nuclei signal change (viability), lower = more cytotoxic is -11.5%.

For O=C(N/N=C/c1ccc(Cl)cc1)c1sccc1OCc1ccc(F)cc1, which DAPI nuclei signal change (viability), lower = more cytotoxic is on record?
Its DAPI nuclei signal change (viability), lower = more cytotoxic is -28.2%.

Which DAPI nuclei signal change (viability), lower = more cytotoxic does the source give for COc1cccc(/C=N/Nc2nc3ccccc3[nH]2)c1O here?
Its DAPI nuclei signal change (viability), lower = more cytotoxic is -23.9%.

Which DAPI nuclei signal change (viability), lower = more cytotoxic does the source give for Cc1c(C#N)c(O)n(CCO)c(=O)c1N=Nc1ccc2c(c1)COC2=O here?
Its DAPI nuclei signal change (viability), lower = more cytotoxic is -35.4%.

With CCN(CC)S(=O)(=O)c1ccc(N2CCOCC2)c(NC(=O)c2[nH]c(C)c(C(C)=O)c2C)c1 as the compound, how does the DAPI nuclei signal change (viability), lower = more cytotoxic read?
Its DAPI nuclei signal change (viability), lower = more cytotoxic is -3.1%.

With O=C(Nc1cccc(Cl)c1)c1nc[nH]c1C(=O)NCCN(CCNC(=O)c1[nH]cnc1C(=O)Nc1cccc(Cl)c1)CCNC(=O)c1[nH]cnc1C(=O)Nc1cccc(Cl)c1 as the compound, how does the DAPI nuclei signal change (viability), lower = more cytotoxic read?
Its DAPI nuclei signal change (viability), lower = more cytotoxic is -1.2%.

For CC(C)(C)c1cc(Br)c(O)c(N=Nc2ccc(S(=O)(=O)N3CCOCC3)cc2)c1, which DAPI nuclei signal change (viability), lower = more cytotoxic is on record?
The DAPI nuclei signal change (viability), lower = more cytotoxic was -14.9%.

Which DAPI nuclei signal change (viability), lower = more cytotoxic does the source give for COc1ccc(-c2sc3ccc(N4CCOCC4)cc3c2C#CC(C)(C)O)cc1 here?
The DAPI nuclei signal change (viability), lower = more cytotoxic was -7.65%.

Which DAPI nuclei signal change (viability), lower = more cytotoxic does the source give for c1ccc(OCCNc2nc(NCC3CC3)nc3cc(-c4ccccc4)sc23)cc1 here?
Its DAPI nuclei signal change (viability), lower = more cytotoxic is 5.71%.

With COc1ccc(C2NCCc3c2[nH]c2ccccc32)cc1COc1ccc(F)cc1 (stereo unspecified) as the compound, how does the DAPI nuclei signal change (viability), lower = more cytotoxic read?
The DAPI nuclei signal change (viability), lower = more cytotoxic was -38.4%.

Which DAPI nuclei signal change (viability), lower = more cytotoxic does the source give for CN(C)CCCNc1nc2sc3c(c2c(=O)n1CCc1ccccc1)CCCCC3 here?
Its DAPI nuclei signal change (viability), lower = more cytotoxic is -10.3%.

For CCOC(=O)c1[nH]c(C)c(C(=O)Nc2ccccc2C)c1C, which DAPI nuclei signal change (viability), lower = more cytotoxic is on record?
Its DAPI nuclei signal change (viability), lower = more cytotoxic is -38.7%.

For COc1ccc(NC2=NC(=S)N(c3ccc(C)cc3)C23CCCCC3)cc1, which DAPI nuclei signal change (viability), lower = more cytotoxic is on record?
Its DAPI nuclei signal change (viability), lower = more cytotoxic is -28.8%.

Which DAPI nuclei signal change (viability), lower = more cytotoxic does the source give for CC(C)(C)c1ccc(C(O)CCCN2CCC(C(O)(c3ccccc3)c3ccccc3)CC2)cc1 (stereo unspecified) here?
Its DAPI nuclei signal change (viability), lower = more cytotoxic is -9.66%.

With CCCCCC[N+](C)(C)CC/C=C1/c2ccccc2Sc2ccc(Cl)cc21 as the compound, how does the DAPI nuclei signal change (viability), lower = more cytotoxic read?
The DAPI nuclei signal change (viability), lower = more cytotoxic was -1.94%.

Which DAPI nuclei signal change (viability), lower = more cytotoxic does the source give for COCc1ccc(O)c2ncccc12 here?
The DAPI nuclei signal change (viability), lower = more cytotoxic was -45.5%.

From PubChem BioAssay AID651582 (Sanford-Burnham Center for Chemical Genomics, 2012)
